Whole data set: some 33,000 sequences, median “E-score (-0.5 to 0.5)” near -0.012, cut for the highest 2% near 0.27. The list shows a part of the results.
What follows are sequences tested against T1, Vhr1 (UniProt P40522) (assay: PBM E-score (8-mer binding enrichment) (E-score (-0.5 to 0.5)); higher = stronger / more preferred TF binding; most listed sequences are background and not binding sites). Conditions: protein concentration: 200 nM; construct: GST-full length.
T1 sequence: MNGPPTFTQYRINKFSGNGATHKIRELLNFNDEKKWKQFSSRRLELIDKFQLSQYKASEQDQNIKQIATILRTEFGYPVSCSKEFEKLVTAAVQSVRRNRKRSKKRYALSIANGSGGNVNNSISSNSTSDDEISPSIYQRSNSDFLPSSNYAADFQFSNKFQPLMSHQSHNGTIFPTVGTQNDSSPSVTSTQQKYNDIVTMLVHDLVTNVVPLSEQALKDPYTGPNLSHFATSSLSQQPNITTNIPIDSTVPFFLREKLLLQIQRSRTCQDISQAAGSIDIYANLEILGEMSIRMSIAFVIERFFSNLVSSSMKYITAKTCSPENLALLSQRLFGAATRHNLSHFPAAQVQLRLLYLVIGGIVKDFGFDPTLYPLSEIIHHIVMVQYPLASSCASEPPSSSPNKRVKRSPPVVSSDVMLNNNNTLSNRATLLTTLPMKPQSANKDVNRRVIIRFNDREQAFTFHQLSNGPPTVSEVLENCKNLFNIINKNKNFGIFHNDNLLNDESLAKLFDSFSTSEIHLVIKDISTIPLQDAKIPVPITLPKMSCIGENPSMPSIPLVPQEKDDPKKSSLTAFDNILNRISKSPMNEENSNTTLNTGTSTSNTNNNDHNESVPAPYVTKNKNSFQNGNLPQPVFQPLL
In short: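 Using PURExpress in vitro transcription/translation, GST-tagged yeast transcription factors were made in full-length or DNA-binding-domain form. These were applied at about 100-200 nM to double-stranded universal all-10-mer Agilent arrays, and bound protein was detected with fluorescent anti-GST. Scans were normalised with masliner before the Universal PBM Analysis Suite assigned E-scores to ungapped eight-base words pooled with their reverse complements.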

Sequence	PBM E-score
AAGAGGTA	0.0122
GACATCTC	0.0794
CGTTGTAG	0.182
AACGCTTA	-0.217
TATGCGAA	0.039
AGACTAAT	0.0912
ACCAGATA	0.16
CCCCACTC	0.128
AGCTGGCG	-0.00168
ACCTGCTC	-0.044
CATGTAAC	0.0748
TAGAGTGA	-0.0169
CGCACGTC	-0.0624
GCAATTCA	-0.181
GAGCCGTA	0.149
CACCAATA	0.0415
CAACTGGC	-0.2
CCTCCACC	-0.01
GAGATCGA	-0.0713
GCTGACCC	0.0256
ACGATCAA	-0.0543
ACGGAGCA	0.0773
ACTTTACT	-0.0267
AGTTATTC	-0.101
ATACAGTG	0.159

Sequence	PBM E-score
ACTTGGTA	0.0479
CTGGGGAC	-0.227
GGGGTACC	0.0141
AGTGGTTA	0.147
AGGGTAGG	-0.0156
CCATACGC	0.182
AAGCCTTA	-0.209
GTCGTGCA	0.141
AAAGACTG	-0.308
GCGGCGAA	-0.0346
TAGTAGAA	-0.199
ATTGTAGA	0.136
GGGCTTAA	-0.22
ATGGATCC	0.144
GATTCGAC	0.183
ATGGGGTA	0.0673
TCGGAAGA	-0.0282
GTACCAAA	0.11
GGGTTGTA	-0.0153
CGAGGACG	-0.0826
AACCTCAA	-0.195
CATATGCG	0.0901
GGCTCTTA	-0.0849
ATTTACCG	-0.0838
GTCCGGTA	0.0107

Sequence	PBM E-score
CGTATTTC	-0.271
GGTAGAGA	-0.075
AAATCGCG	-0.0259
CAATACCA	0.124
TCTACTAA	-0.0395
TGCGCGAA	0.0957
TCCATCGA	-0.0194
ATAACTAT	0.00668
GGCATGAC	0.0635
TACTAATA	0.0951
GCGCGCAC	0.122
CGGTGACG	-0.0241
CTCATCTC	0.0788
AACGCGAA	0.0891
GTCGAGTA	0.163
GTTAGACA	0.0943
ACGCCGCC	0.0117
AGTGAGTA	0.192
CACTTTTA	-0.165
AATCCGGA	0.108
AATGCGTG	0.108
CGCCTCAA	-0.157
CGTGTGTA	0.21
CCGCTGAA	-0.0213
CCTGCTCA	0.0214

Sequence	PBM E-score
ACTACGAG	0.185
GCCTTGAC	-0.167
AAAAAGGT	-0.231
AAGTAACA	0.0225
CTAGTAGC	-0.0231
CCAGCGGC	0.13
GCCCAGAA	-0.202
CCTTAGCG	-0.0778
AAGGTCTA	-0.13
AATCGCAT	0.227
ATTGAAGC	-0.163
TATTTGAA	-0.138
CCAACACA	0.0929
ACTCATAC	0.284
CTTAGACA	-0.213
ACTGTTAT	-0.0145
AAGTAACT	-0.112
ATCTGCAT	0.181
CCAGCCGG	-0.039
TCAGTGGA	0.0669
ACAAACGA	0.144
AGTGATAG	-0.0174
TGCACGAA	-0.00326
TCAAAAAA	0.0331
ATCGCGAA	0.22

Sequence	PBM E-score
AAGGCGAT	-0.189
CTGGGCGA	-0.0143
CGAGTTGC	0.0125
ATCGACCG	-0.243
GCCTCACA	-0.00274
CGAAATCA	0.146
CGAGAAGA	-0.234
CACTGAGG	0.174
CCAGAATC	0.119
GCTCTAAC	-0.0794
ATTCTGAC	0.012
ATGTGAAG	0.0331
TGTAGTAA	0.0329
AATTGAAA	-0.152
CATCATTC	0.0958
GATAATCA	0.301
ATGAGTGA	0.248
TCAACCCA	0.0928
AGGTAAGC	-0.22
CAGAAGTA	0.00109
CTCGGCTC	0.128
CATGGGGC	0.0394
GCAGCCAA	0.0642
GAGCCATA	0.166
AAACCATA	0.0822

Sequence	PBM E-score
AAGAGCAC	-0.0616
CCACGCGA	0.0212
AAGATGAG	0.00023
GAGCTAGC	-0.0306
CTCGCTAC	0.0345
GATAGTGA	0.151
CCAAGGGG	-0.063
ACAGTCAG	0.228
ACAATTAA	0.137
CACCAACC	0.0665
CACACTGG	0.0459
AGAAGCGA	-0.0198
CAATCAGA	-0.0178
CGTGTCGC	0.215
AACACTTA	-0.0632
CATGGATA	0.146
GCGAAAAC	-0.245
CGTTAACA	-0.14
CGGGAGTC	0.386
ATAACAGG	-0.0728
AATAACGT	-0.127
ACCGGCGC	0.164
ATGTTGTG	0.0309
CATTCTTA	-0.0305
AGGAACTG	-0.205

Sequence	PBM E-score
ACCGCCAA	-0.0122
TATTCCAA	-0.264
TCGACCAA	-0.152
GTGGCGTA	-0.0654
GCGTAGAC	-0.214
CTGTTACC	0.0198
TGAGATAA	0.0124
CATGCTGG	-0.00031
CTCTGATC	-0.0383
ATCCAAGA	0.125
CGCCAAAA	-0.0804
ACTTCGAC	0.0861
GACGAGCA	-0.0703
ACGACAGA	-0.195
GTGGAATA	0.114
ACTCCGCG	0.261
GGACCGGA	0.0379
AGGACCGG	-0.314
GAATATCA	0.1
CGTGAAGA	-0.0802
CTGGACGC	-0.148
ACCAAAAC	0.128
ACCGGGAG	-0.118
ATGTCTCC	0.175
TAACACTA	0.173

Sequence	PBM E-score
CTACTTGA	-0.0569
ATGTGGAC	0.0192
GCTCTAGA	-0.133
ATGGACGA	0.178
GGCAGCCA	0.165
CCTTCTTA	-0.152
CAGATCCC	0.0847
ATAAGATC	-0.0282
CACAACCG	0.214
CCGAGCTC	-0.0673
AGCAACAT	-0.0984
CCAGTGCA	0.0186
AGAAGATC	-0.173
CCCCGGGA	-0.0204
ACTACCCA	0.107
CCTGCGGC	-0.108
AAACCACC	-0.0923
AAAGAATG	0.0281
GACCTGGA	0.0571
AACCTCCT	-0.202
GCCCCACC	0.265
AGTGGCCC	-0.0635
CAATCCGA	0.0215
AGCCTAAC	-0.117
AGGTCATA	0.0299

Sequence	PBM E-score
GGACTAAC	-0.00735
CAGTCGAG	-0.107
ACATAAAT	0.11
CCTCGTCC	-0.128
CCTCTGAA	-0.0939
GGTATGAC	0.231
ATATGTTC	0.217
CCGTGCTC	0.0127
GGCCCAGA	-0.26
AAGCCGAT	0.045
TTACAAAA	-0.0504
ATAATCAC	0.308
GCTTGCTA	-0.124
AGTTGAGA	-0.0128
GGCGCCAA	-0.122
CGTCAGTC	-0.0345
AAGTTTCA	-0.0619
CGCACACA	0.134
GGCGGCCA	-0.061
